Here are results for 55 molecules from article PMC4336329 (PLoS ONE, 2015).

The campaign covered roughly 310,000 compounds. About 14,000 (4.5%) showed an effect of 50% or more. Effects have a minus sign here. The list shows a part of the results.
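Note: peak tail current of the secondary pulse compared with the same well before compound.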

For the assay, the target named is human ether-à-go-go-related gene (hERG) potassium channel (human, UniProt Q12809). In words: primary screen, population patch clamp on CHO cells stably expressing hERG.
Chain of human ether-à-go-go-related gene (hERG) potassium channel (Q12809 whole entry, looked up): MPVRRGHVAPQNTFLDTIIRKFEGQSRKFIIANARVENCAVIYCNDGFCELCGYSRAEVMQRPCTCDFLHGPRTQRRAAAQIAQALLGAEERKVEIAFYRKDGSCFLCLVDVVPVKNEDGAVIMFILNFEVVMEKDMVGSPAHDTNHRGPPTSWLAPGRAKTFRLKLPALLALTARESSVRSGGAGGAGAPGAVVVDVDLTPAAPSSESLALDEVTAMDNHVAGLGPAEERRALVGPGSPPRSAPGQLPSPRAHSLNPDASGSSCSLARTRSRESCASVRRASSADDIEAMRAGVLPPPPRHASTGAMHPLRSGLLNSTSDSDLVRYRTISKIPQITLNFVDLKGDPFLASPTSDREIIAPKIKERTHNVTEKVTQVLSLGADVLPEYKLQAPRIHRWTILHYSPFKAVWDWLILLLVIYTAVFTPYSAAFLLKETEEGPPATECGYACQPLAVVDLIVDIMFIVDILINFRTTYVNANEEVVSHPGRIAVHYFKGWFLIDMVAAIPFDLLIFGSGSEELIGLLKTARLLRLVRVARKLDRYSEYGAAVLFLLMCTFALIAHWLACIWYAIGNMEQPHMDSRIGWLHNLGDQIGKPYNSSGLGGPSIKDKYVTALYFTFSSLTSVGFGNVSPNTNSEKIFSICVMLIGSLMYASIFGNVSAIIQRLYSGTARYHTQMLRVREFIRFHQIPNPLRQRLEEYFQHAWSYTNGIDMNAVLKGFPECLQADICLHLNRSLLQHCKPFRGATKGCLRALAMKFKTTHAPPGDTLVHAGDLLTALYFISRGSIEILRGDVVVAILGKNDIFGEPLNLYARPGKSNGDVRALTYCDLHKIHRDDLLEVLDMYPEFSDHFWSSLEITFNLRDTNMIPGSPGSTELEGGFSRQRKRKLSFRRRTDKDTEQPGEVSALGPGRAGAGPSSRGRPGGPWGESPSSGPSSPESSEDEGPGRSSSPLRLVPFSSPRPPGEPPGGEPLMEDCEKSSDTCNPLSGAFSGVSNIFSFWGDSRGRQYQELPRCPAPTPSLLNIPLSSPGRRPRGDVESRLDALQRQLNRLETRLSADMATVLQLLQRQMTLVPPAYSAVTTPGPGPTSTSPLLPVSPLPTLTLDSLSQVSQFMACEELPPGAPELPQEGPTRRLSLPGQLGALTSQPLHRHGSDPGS
Regarding `O=C(O)CC1(CC(=O)Nc2ccc(F)c(Cl)c2)CCCCC1`, the “hERG current change (%, negative = inhibition) at 10uM” value was 17.9%.

As for `COc1ccc(OCCCC(=O)ON=C(N)c2ccccc2Cl)cc1`, the “hERG current change (%, negative = inhibition) at 10uM” value was determined as 8.61%.

On to `COCCNC(=O)c1onc(CSc2cccc(OC)c2)c1C(=O)NCCOC`, for which the “hERG current change (%, negative = inhibition) at 10uM” value was -7.98%.

Take `O=C(c1ccc(Cl)c(Cl)c1)N1CCN(c2ccccn2)CC1`: the “hERG current change (%, negative = inhibition) at 10uM” value is -15.1%.

In the case of `O=C(O)c1nn(-c2ccccc2)nc1-c1nn(-c2ccccc2)nc1C(=O)O`, the “hERG current change (%, negative = inhibition) at 10uM” value was 19.7%.

Consider `COc1ccc(S(=O)(=O)Nc2ccccc2C(=O)NCc2cccnc2)cc1`, for which the “hERG current change (%, negative = inhibition) at 10uM” value is 8.08%.

As for `CCc1ccc(N(C(=O)CNC(=O)c2ccco2)C(C(=O)NC2CCCC2)c2cccnc2)cc1` (stereo not shown), the “hERG current change (%, negative = inhibition) at 10uM” value is 0.178%.

`COc1cc2c(cc1NC(=O)COC(=O)[C@@H](NC(=O)c1ccccc1F)C(C)C)oc1ccccc12`: the “hERG current change (%, negative = inhibition) at 10uM” value is 9.13%.

For `CC(=O)c1cc2c(cc1NS(=O)(=O)c1ccc(C)cc1)OCCO2`, the “hERG current change (%, negative = inhibition) at 10uM” value stood at 4.34%.

With `CC(C)CC(NC(=O)c1ccc(Cl)cc1)C(=O)O` (stereo not shown), the “hERG current change (%, negative = inhibition) at 10uM” value turned out to be 8.81%.

Take `COc1ccc(OCCCc2c(C)n[nH]c2C)cc1`: the “hERG current change (%, negative = inhibition) at 10uM” value is given as -3.61%.

As for `CCCCCOC(=O)c1ccc(NC(=O)c2cccc(NC(=O)c3ccccc3C(=O)O)c2)cc1`, the “hERG current change (%, negative = inhibition) at 10uM” value was determined as 24.8%.

Take `CCN(CC)c1ccc(NC(=O)CCCCCN2C(=O)c3ccccc3C2=O)cc1`: the “hERG current change (%, negative = inhibition) at 10uM” value is on record as -25%.

With `COc1ccccc1-n1nnnc1SCC(=O)NC1CC1`, the “hERG current change (%, negative = inhibition) at 10uM” value is -9.16%.

On to `COC(=O)C1CN(C(=O)COc2ccc(C)cc2)c2ccccc2O1` (stereo not shown), for which the “hERG current change (%, negative = inhibition) at 10uM” value is -11.9%.

Regarding `S=C1NC2(CCCCC2)NC12CCCCC2`, the “hERG current change (%, negative = inhibition) at 10uM” value stood at 18.4%.

Take `CCOC(=O)c1ccc([N+](=O)[O-])cc1NC(C)=O`: the “hERG current change (%, negative = inhibition) at 10uM” value amounted to 3.85%.

As to `CCN(CC)C(=O)CSc1nc(-c2ccccc2)ccc1C#N`, the “hERG current change (%, negative = inhibition) at 10uM” value is -8.25%.

In the case of `N#CC(c1nc2ccccc2nc1OCCO)S(=O)(=O)c1ccccc1` (stereo not shown), the “hERG current change (%, negative = inhibition) at 10uM” value is 12.6%.

On to `Cc1cccc(CN2CCCC(C(=O)c3cccc(OC(C)C)c3)C2)n1` (stereo not shown), for which the “hERG current change (%, negative = inhibition) at 10uM” value is given as -40%.

Consider `CCN(CC)S(=O)(=O)c1cccc(-c2nnc(SC(C)C(=O)NCCC3=CCCCC3)o2)c1` (stereo not shown), for which the “hERG current change (%, negative = inhibition) at 10uM” value is recorded as -12.2%.

`O=C(CCCn1nnc(-c2cccnc2)n1)c1ccc(F)cc1`: the “hERG current change (%, negative = inhibition) at 10uM” value is reported as -27.2%.

In the case of `CN(C)C1(CNC(=O)c2ccc(Cl)c(S(=O)(=O)NCc3ccco3)c2)CCCCC1`, the “hERG current change (%, negative = inhibition) at 10uM” value was -37.3%.

Consider `CCn1cc([N+](=O)[O-])c(C(=O)N2CCN(C(=O)c3ccco3)CC2)n1`, for which the “hERG current change (%, negative = inhibition) at 10uM” value came out at 7.17%.

Turning to `COc1ccc(CC(=O)N2CCN(S(=O)(=O)c3cccs3)CC2)cc1OC`, the “hERG current change (%, negative = inhibition) at 10uM” value is -3.99%.

As to `C=CCn1c(SCC(=O)N(CCC)C2CCS(=O)(=O)C2)nnc1-c1ccccc1OC` (stereo not shown), the “hERG current change (%, negative = inhibition) at 10uM” value was -5.39%.

Consider `CCN1C(=O)N[C@@H](CCc2ccccc2)[C@H](C(=O)OC)[C@H]1C`, for which the “hERG current change (%, negative = inhibition) at 10uM” value came to 1.59%.

As to `O=C(NC(=S)Nc1ccc(NC(=O)c2ccco2)cc1)c1ccccc1`, the “hERG current change (%, negative = inhibition) at 10uM” value was 16.4%.

Regarding `Cc1ccc(S(=O)(=O)NCC(=O)NCC(=O)N(C)Cc2ccc3ccccc3c2)cc1C`, the “hERG current change (%, negative = inhibition) at 10uM” value is recorded as 2.62%.

`CCCNC(=O)COC(=O)/C=C/c1ccc(C)o1`: the “hERG current change (%, negative = inhibition) at 10uM” value worked out at 5.06%.

As for `COc1ccc(C(=O)Nc2ccc(N3CCCCCC3)cc2)cc1S(=O)(=O)N1CCOCC1`, the “hERG current change (%, negative = inhibition) at 10uM” value is listed as -40.1%.

Turning to `CCCCN(C)CCNC(=O)c1cc2c(=O)[nH]c3ccccc3c2n1C`, the “hERG current change (%, negative = inhibition) at 10uM” value is listed as -13.2%.

As for `O=C(Cn1nc(Cc2ccncc2)c2ccccc2c1=O)N1CCc2ccccc2C1`, the “hERG current change (%, negative = inhibition) at 10uM” value is recorded as -44.4%.

For the molecule `O=C(NCc1ccc(Cl)cc1)C1CCN(S(=O)(=O)c2cccnc2)CC1`, the “hERG current change (%, negative = inhibition) at 10uM” value was -25.7%.

Consider `O=C(Nc1cccc2ccccc12)N1CCN(c2ccccc2)CC1`, for which the “hERG current change (%, negative = inhibition) at 10uM” value was -2.93%.

Take `CC(C)O.COc1cc(/C=N/NC(=O)c2ccc(O)cc2)ccc1Oc1ccc([N+](=O)[O-])cn1`: the “hERG current change (%, negative = inhibition) at 10uM” value is -32%.

Turning to `Cl.OC(COCCOc1ccc(Br)cc1)CN1CCCCC1` (stereo not shown), the “hERG current change (%, negative = inhibition) at 10uM” value was -37.1%.

For the molecule `Cc1cc(C(F)F)n2nc(C(=O)O)nc2n1`, the “hERG current change (%, negative = inhibition) at 10uM” value is given as -0.987%.

As for `CCOc1ccccc1NC(=O)C1Cc2ccccc2CN1S(C)(=O)=O` (stereo not shown), the “hERG current change (%, negative = inhibition) at 10uM” value was determined as 8.4%.

For `Cn1cc(Br)c(C(=O)NN2C(=O)C3C(C2=O)C2C=CC3C23CC3)n1` (stereo not shown), the “hERG current change (%, negative = inhibition) at 10uM” value worked out at 39.6%.

`CCNC(=O)CSc1nc2cc([N+](=O)[O-])ccc2n1-c1cccc(C(F)(F)F)c1`: the “hERG current change (%, negative = inhibition) at 10uM” value is -35.8%.

For the molecule `O=c1c2cc([N+](=O)[O-])ccc2nc2n1CCC2`, the “hERG current change (%, negative = inhibition) at 10uM” value is reported as -7.93%.

In the case of `CCCOc1ccc(N2C(=O)CC(N(CCc3ccc(OC)cc3)C(=O)/C=C/C(=O)O)C2=O)cc1` (stereo not shown), the “hERG current change (%, negative = inhibition) at 10uM” value stood at 11.2%.

Regarding `CCOc1ccc(/C=N/OCC(=O)Nc2ccc3c(c2)OCO3)cc1`, the “hERG current change (%, negative = inhibition) at 10uM” value was -40.5%.

For `COc1ccccc1C(=O)NCC(c1ccco1)N1CCc2ccccc21` (stereo not shown), the “hERG current change (%, negative = inhibition) at 10uM” value was -6.41%.

For the molecule `CC1CCN(Cc2cc(=O)oc3ccc(C(C)C)cc23)CC1.Cl`, the “hERG current change (%, negative = inhibition) at 10uM” value was 9.68%.

`CCOc1ccc(CCNC(=O)COC(=O)CCS(=O)(=O)c2ccc(C)cc2)cc1OCC`: the “hERG current change (%, negative = inhibition) at 10uM” value is given as 13.5%.

With `CSc1ncccc1C(=O)OCC(=O)NC(C)(C)C`, the “hERG current change (%, negative = inhibition) at 10uM” value stood at 10.5%.

On to `Cn1nnnc1Sc1ncnc2scc(-c3cc4ccccc4o3)c12`, for which the “hERG current change (%, negative = inhibition) at 10uM” value turned out to be 3.47%.

Regarding `Cc1ccc(C)c(NC(=O)CN(C)C(=O)C2CCCC2)c1`, the “hERG current change (%, negative = inhibition) at 10uM” value worked out at 15.9%.

With `Cc1cc(NC(=O)CSc2nc3c(C)cccc3cc2C)no1`, the “hERG current change (%, negative = inhibition) at 10uM” value came to 17.7%.

Regarding `CCN(CC(=O)NCCc1ccc(F)cc1)Cc1nc2ccccc2c(=O)[nH]1`, the “hERG current change (%, negative = inhibition) at 10uM” value is on record as -50.7%.

In the case of `COc1ccc(NC(=O)c2ccc3c(c2)C(=O)N(Cc2cccnc2)C3=O)cc1`, the “hERG current change (%, negative = inhibition) at 10uM” value stood at 10.9%.

Regarding `CC(=NCc1ccco1)c1c(O)n(-c2ccccc2)c(=O)[nH]c1=O`, the “hERG current change (%, negative = inhibition) at 10uM” value was determined as 4.82%.

With `Cc1cccn2c(=O)c3cc(C(=O)NCCN4CCOCC4)n(C)c3nc12`, the “hERG current change (%, negative = inhibition) at 10uM” value was -3.18%.
